Experimental data: patent publication US8829194B2, “Crystalline forms of the sodium salt of (4-{4-[5-(6-trifluoromethyl-pyridin-3-ylamino)-pyridin-2-yl]-phenyl}-cyclohexyl)-acetic acid” (Novartis AG, priority 2010, dated 2014)
Some values that stand alone complete this part of the results. Each block holds one molecule with its values, some of them ahead of it.

Experiment: Water loss as a function of temperature by TG/DTA (loss on drying, thermal transitions)
Type: physicochemical
Details: DTA signals, temperature at which the water is lost
Text: (ii) Thermogravimetric/Differential Thermal Analysis (TG/DTA) […]
The data listed below show the total water loss (LOD by thermogravimetry (TG)) and thermal transitions (DTA signals) show the temperature at which the water is lost.

LOD (thermal transitions) (listed as I, first DTA thermal transition): 52 °C
LOD (thermal transitions) (listed as I, second DTA thermal transition): 90 °C
Compound: O=C([O-])C[C@H]1CC[C@H](c2ccc(-c3ccc(Nc4ccc(C(F)(F)F)nc4)cn3)cc2)CC1.[Na+] [Modification I, sodium salt of (4-{4-[5-(6-trifluoromethyl-pyridin-3-ylamino)-pyridin-2-yl]-phenyl}-cyclohexyl)-acetic acid]

LOD (thermal transitions) (first DTA thermal transition (water loss)): 52.0 °C
LOD (thermal transitions) (second DTA thermal transition (water loss)): 69.6 °C
Compound: O=C([O-])C[C@H]1CC[C@H](c2ccc(-c3ccc(Nc4ccc(C(F)(F)F)nc4)cn3)cc2)CC1.[Na+] [Modification E, sodium salt of (4-{4-[5-(6-trifluoromethyl-pyridin-3-ylamino)-pyridin-2-yl]-phenyl}-cyclohexyl)-acetic acid]

LOD (thermal transitions) (listed as B, first DTA thermal transition): 64.7 °C
LOD (thermal transitions) (listed as B, second DTA thermal transition): 82.6 °C
Compound: O=C([O-])C[C@H]1CC[C@H](c2ccc(-c3ccc(Nc4ccc(C(F)(F)F)nc4)cn3)cc2)CC1.[Na+] [Modification B, sodium salt of (4-{4-[5-(6-trifluoromethyl-pyridin-3-ylamino)-pyridin-2-yl]-phenyl}-cyclohexyl)-acetic acid]

LOD (thermal transitions) (first endotherm): 41 °C
LOD (thermal transitions) (second endotherm): 67 °C
Compound: O=C([O-])C[C@H]1CC[C@H](c2ccc(-c3ccc(Nc4ccc(C(F)(F)F)nc4)cn3)cc2)CC1.[Na+] [Modification A, sodium salt of (4-{4-[5-(6-trifluoromethyl-pyridin-3-ylamino)-pyridin-2-yl]-phenyl}-cyclohexyl)-acetic acid]
